Measured values published in publication PMC3879368, “Characterisation of a Multi-ligand Binding Chemoreceptor CcmL (Tlp3) of Campylobacter jejuni” (PLoS Pathogens, 2014).
No constants are given. Whether binding was seen depends on the method and setting. Some results given as binding are weak or reduced against the parent protein; the word gives no strength.

Protein sequences, listed by entry. Tags and fused reporters are not part of them. Residues count along the entry.
UniProt Q0P864, residues 517-662: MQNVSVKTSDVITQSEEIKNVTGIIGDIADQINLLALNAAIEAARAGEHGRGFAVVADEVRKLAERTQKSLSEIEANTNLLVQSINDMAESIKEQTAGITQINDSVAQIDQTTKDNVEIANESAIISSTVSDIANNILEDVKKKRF
UniProt P0C635: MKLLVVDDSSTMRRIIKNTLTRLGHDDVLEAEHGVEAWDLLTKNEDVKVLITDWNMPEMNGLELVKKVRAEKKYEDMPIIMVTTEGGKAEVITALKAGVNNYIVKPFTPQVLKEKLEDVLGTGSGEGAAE

How the values were obtained:
[1] = target: Tlp^sig _(2.3.4), the cytoplasmic signalling domain of Tlp3 (Cj1564, CcmL), residues 517-662 (C. jejuni NCTC11168-O) (UniProt Q0P864); assay: two-hybrid; yeast two-hybrid, GAL-4 DNA-BD (bait) and AD (target) fusions co-transformed; growth on high and intermediate stringency media; both combinations of fusions tested
[2] = target: T1, CheA (C. jejuni NCTC11168-O) (UniProt Q0PBM2); assay: as above
T1 sequence: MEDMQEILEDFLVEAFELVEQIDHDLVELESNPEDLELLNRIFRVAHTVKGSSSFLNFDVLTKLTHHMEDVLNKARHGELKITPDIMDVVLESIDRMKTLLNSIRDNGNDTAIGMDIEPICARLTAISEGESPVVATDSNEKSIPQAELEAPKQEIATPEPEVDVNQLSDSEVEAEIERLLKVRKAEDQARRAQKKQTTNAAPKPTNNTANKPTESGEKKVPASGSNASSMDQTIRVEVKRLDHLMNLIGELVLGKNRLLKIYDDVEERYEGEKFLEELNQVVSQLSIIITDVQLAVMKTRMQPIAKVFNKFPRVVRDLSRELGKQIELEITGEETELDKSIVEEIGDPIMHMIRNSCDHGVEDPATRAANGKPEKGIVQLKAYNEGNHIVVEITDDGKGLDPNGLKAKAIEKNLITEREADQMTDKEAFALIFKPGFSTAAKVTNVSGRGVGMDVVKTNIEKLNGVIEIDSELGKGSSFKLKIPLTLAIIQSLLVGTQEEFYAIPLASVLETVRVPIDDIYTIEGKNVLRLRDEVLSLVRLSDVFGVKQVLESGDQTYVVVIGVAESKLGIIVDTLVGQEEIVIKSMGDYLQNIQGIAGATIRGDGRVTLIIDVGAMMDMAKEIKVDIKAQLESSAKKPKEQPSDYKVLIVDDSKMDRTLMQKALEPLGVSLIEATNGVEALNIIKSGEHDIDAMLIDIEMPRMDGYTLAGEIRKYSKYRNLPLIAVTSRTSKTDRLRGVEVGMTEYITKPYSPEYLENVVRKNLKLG

[3] = target: T2, CheV (C. jejuni NCTC11168-O) (UniProt Q0PBM1); assay: as above
T2 sequence: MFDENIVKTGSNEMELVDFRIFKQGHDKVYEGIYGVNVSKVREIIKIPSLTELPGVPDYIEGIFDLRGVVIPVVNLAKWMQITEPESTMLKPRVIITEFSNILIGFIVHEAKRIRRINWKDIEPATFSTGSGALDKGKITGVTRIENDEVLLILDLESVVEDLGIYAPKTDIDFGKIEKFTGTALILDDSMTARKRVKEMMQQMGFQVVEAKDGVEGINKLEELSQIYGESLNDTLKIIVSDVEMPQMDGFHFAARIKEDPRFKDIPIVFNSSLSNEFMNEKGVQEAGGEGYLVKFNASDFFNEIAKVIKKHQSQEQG

[4] = target: CheY (C. jejuni NCTC11168-O) (UniProt P0C635); assay: as above
[5] = target: T2, CheV (C. jejuni NCTC11168-O); assay: yeast three-hybrid; GAL-4 BD and AD fusions with native CheW as conditionally expressed third protein (pBrTlp234IWII, pBrVIWII); expression of CheW induced; growth on His deficient media
[6] = target: T2, CheV (C. jejuni NCTC11168-O); assay: yeast three-hybrid; GAL-4 BD and AD fusions with native CheW as conditionally expressed third protein (pBrTlp234IWII, pBrVIWII); expression of CheW repressed; growth on His deficient media
[7] = target: Tlp^sig _(2.3.4), the cytoplasmic signalling domain of Tlp3 (Cj1564, CcmL), residues 517-662 (C. jejuni NCTC11168-O) (UniProt Q0P864); assay: yeast three-hybrid; GAL-4 BD and AD fusions with native CheV as conditionally expressed third protein (pBrTlp234IVII, pBrWIVII); expression of CheV induced; growth on His deficient media
[8] = target: Tlp^sig _(2.3.4), the cytoplasmic signalling domain of Tlp3 (Cj1564, CcmL), residues 517-662 (C. jejuni NCTC11168-O) (UniProt Q0P864); assay: yeast three-hybrid; GAL-4 BD and AD fusions with native CheW as conditionally expressed third protein (pBrTlp234IWII, pBrVIWII); expression of CheW induced; growth on His deficient media
[9] = target: Tlp^sig _(2.3.4), the cytoplasmic signalling domain of Tlp3 (Cj1564, CcmL), residues 517-662 (C. jejuni NCTC11168-O) (UniProt Q0P864); assay: yeast three-hybrid; GAL-4 BD and AD fusions with native CheV as conditionally expressed third protein (pBrTlp234IVII, pBrWIVII); expression of CheV repressed; growth on His deficient media
[10] = target: Tlp^sig _(2.3.4), the cytoplasmic signalling domain of Tlp3 (Cj1564, CcmL), residues 517-662 (C. jejuni NCTC11168-O) (UniProt Q0P864); assay: yeast three-hybrid; GAL-4 BD and AD fusions with native CheW as conditionally expressed third protein (pBrTlp234IWII, pBrVIWII); expression of CheW repressed; growth on His deficient media

For CheY (from UniProt P0C635 1-130), the binding [1] was “no binding”.

“Tlp^sig _(2.3.4), the cytoplasmic signalling domain of Tlp3 (Cj1564, CcmL), residues 517-662 (from UniProt Q0P864 517-662) (domain or fragment)” was tested, and the binding [2] was “no binding”, the binding [3] was “binds” and the binding [4] was “no binding”. The binding [5] was “binds” and the binding [6] was “binds”.

B1: CheA (enzyme, UniProt Q0PBM2 1-769)
chain: T1 sequence
In the case of B1, the binding [1] is reported as “no binding”.

B2: CheV (protein, UniProt Q0PBM1 1-318)
chain: T2 sequence
B2 was tested, and the binding [1] was “binds”, the binding [7] was “binds” and the binding [8] was “binds”. The binding [9] was “binds” and the binding [10] was “binds”.
